About 2,200 (0.71%) of roughly 310,000 compounds showed an effect of 50% or more. The effect is printed as a negative number. Some of the results follow. Where a SMILES comes first, the peptide text is derived from it.
Molecular target: human ether-à-go-go-related gene (hERG) potassium channel (human, UniProt Q12809)
Assay: primary screen, population patch clamp on CHO cells stably expressing hERG

Chain of human ether-à-go-go-related gene (hERG) potassium channel (Q12809 whole entry, looked up): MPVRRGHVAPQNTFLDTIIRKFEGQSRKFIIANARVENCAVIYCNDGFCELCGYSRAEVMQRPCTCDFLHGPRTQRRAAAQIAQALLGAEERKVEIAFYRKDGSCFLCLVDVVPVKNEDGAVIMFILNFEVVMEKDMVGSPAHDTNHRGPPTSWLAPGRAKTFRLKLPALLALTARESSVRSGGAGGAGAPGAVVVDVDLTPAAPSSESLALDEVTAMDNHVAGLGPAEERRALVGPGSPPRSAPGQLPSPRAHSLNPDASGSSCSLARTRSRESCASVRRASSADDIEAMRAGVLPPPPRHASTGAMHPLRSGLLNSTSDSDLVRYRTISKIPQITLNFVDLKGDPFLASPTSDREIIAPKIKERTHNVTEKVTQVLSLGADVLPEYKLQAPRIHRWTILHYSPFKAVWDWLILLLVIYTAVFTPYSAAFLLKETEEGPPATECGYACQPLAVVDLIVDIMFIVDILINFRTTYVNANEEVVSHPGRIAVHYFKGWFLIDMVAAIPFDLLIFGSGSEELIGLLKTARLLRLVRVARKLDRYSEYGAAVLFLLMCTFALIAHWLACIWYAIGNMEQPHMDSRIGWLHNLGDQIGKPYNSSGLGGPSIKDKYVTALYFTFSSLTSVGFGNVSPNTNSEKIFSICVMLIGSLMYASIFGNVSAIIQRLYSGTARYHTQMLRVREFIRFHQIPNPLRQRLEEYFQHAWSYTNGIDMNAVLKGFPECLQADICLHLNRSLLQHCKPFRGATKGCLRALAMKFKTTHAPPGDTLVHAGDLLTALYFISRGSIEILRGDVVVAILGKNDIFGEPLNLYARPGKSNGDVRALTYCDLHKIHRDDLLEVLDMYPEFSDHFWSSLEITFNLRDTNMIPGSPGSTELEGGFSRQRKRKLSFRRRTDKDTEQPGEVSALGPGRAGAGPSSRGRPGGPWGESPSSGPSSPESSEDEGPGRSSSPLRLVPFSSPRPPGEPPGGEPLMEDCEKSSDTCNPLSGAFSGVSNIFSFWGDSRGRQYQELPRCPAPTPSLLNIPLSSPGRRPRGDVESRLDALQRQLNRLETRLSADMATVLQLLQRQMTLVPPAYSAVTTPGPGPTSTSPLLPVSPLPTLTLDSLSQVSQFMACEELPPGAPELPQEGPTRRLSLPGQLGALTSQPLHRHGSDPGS

Structure (SMILES)	hERG current change (%, negative = inhibition) at 1uM [%]
Cc1ccc(N(C)C2=NC(=O)CS2)cc1Cl	14.2
Cc1ccc(NC(=O)CN2C(=O)S/C(=C\c3ccccn3)C2=O)cc1	9.63
O=C(CCc1ccccc1)N=C1SC2CS(=O)(=O)CC2N1Cc1ccccc1 (centres unmarked)	28
COc1ccc(C(=S)N2CCN(S(=O)(=O)c3ccccc3)CC2)cc1	8.19
CC(C)N(C(=S)Nc1cc(S(=O)(=O)N2CCOCC2)ccc1Cl)c1ccccc1	-12
Cc1cc(C)n2cc(CSCc3ccccc3)nc2n1	0.594
COc1ccc(C)cc1NS(=O)(=O)c1ccc2c(c1)n(C)c(=O)n2C	12
CCN(CC)S(=O)(=O)c1cc([N+](=O)[O-])ccc1NNC(=O)Nc1ccc(Cl)c(Cl)c1	10.1
COC(=O)c1ccc(C2c3c(oc4cc(C)c(C)cc4c3=O)C(=O)N2CCCN(C)C)cc1 (centres unmarked)	3.4
O=C(CCC1CCN(C(=O)Cc2c(F)cccc2F)CC1)NC1CC1	16.3
O=c1cc(N2CCCCC2)c(-c2ccccc2)nn1Cc1ccc(Cl)cc1	1.75
CC(NS(=O)(=O)c1ccc(OCC(=O)N2CCCC2)cc1)c1ccccc1 (centres unmarked)	15.5
O=C(CCc1ccccc1)Nc1nccs1	15.9
CN1CCN(C(=S)Nc2ccc(Cl)cc2)CC1	13.1
CS(=O)(=O)N1N=C(c2cccs2)CC1c1ccco1 (centres unmarked)	5.57
CC(C)n1c(NCc2c[nH]c3ccccc23)nc2ccccc21	-4.85
Cc1ccc(S(=O)(=O)N2CCN(C)CC2)c(C)c1	16
COc1ccc(N/N=C(/C#N)S(=O)(=O)c2nsc(C)c2C#N)cc1	2.48
COc1ccccc1N1CCN(c2cc(=O)n(Cc3ccc(F)cc3)c(=O)[nH]2)CC1	12.3
NC(=O)c1ccccc1NC(=O)CC12CC3CC(CC(Br)(C3)C1)C2	14.4
CCNc1nc(NCC)nc(N/N=C/c2ccc(O)c(OC)c2)n1	11.4
CC(=O)NC(CC(C)C)C(=O)NC(CO)C(=O)NC(CCC(=O)O)C(=O)NC(C)C(=O)NC(CC(C)C)C(N)=O.O=C(O)C(F)(F)F (centres unmarked) (Ac-LSEAL-NH2; configuration not given here)	10.6

Structure (SMILES)	hERG current change (%, negative = inhibition) at 1uM [%]
COc1cc(NC(=S)NCCc2ccccc2)c(OC)cc1NC(=O)CC(C)C	15.1
CCOC(=O)NNS(=O)(=O)c1cc(Br)ccc1Br	10.8
CCCCCCC1CC(CC(=O)Nc2ccc([N+](=O)[O-])cc2)C(=O)O1 (centres unmarked)	5.92
CCCCCCCN1C2=NCCN2c2ccccc21.Cl	-60.7
Nc1nc2c(nc(N3CCCCC3)n2[C@@H]2O[C@H](CO)[C@@H](O)[C@H]2O)c(=O)[nH]1	11.1
COc1cccc(/C=N/NC(=O)C(=O)NCc2cccnc2)c1	9.25
O=C(Nc1cc(S(=O)(=O)Nc2ccc(Cl)cc2)ccc1O)c1ccc(S(=O)(=O)N2CCCCCC2)cc1	14.5
CN(C(=O)C12CC3CC(CC(C3)C1)C2)C1CCS(=O)(=O)C1 (centres unmarked)	15.8
COc1ccc(NC(=S)NC2CCCCC2)cn1	15.5
CC1CCN(S(=O)(=O)c2ccc(NC(=O)CCN3C(=O)c4ccccc4C3=O)cc2)CC1	17.2
Nc1ncc(Br)cc1S(=O)(=O)NC1CCCCC1	9.52
CCN(c1ccc(OCC(=O)OCC(=O)Nc2ccc(F)c(F)c2F)cc1)S(=O)(=O)c1ccccc1	3.8
O=C(NCc1ccccc1)C(c1ccco1)N(C(=O)c1csnn1)c1ccccc1F (centres unmarked)	10.7
O=C(Cn1ccc2cc(S(=O)(=O)N3CCCC3)ccc21)NCc1ccco1	9.42
O=S(=O)(N/N=C\c1ccc2c(c1)OCO2)c1ccccc1	11.2
Cc1cc(-c2ccccc2)nc2c(Br)c(C(=O)O)nn12	9.41
CCCn1c(Cc2ccccc2)nnc1SCC(=O)N1CCOCC1	10.4
O=C1CC(C(=O)N2CCCc3ccccc32)CN1c1ccc(F)cc1 (centres unmarked)	3.19
CCc1nnc(NC(=O)CSc2nc3cccnc3n2C2CCCCC2)s1	-5.35
CCOc1cc(C2/C(=C(\O)c3cc(C)ccc3C)C(=O)C(=O)N2CCN(C)C)ccc1O (centres unmarked)	-6.16
Cc1ccc(S(=O)(=O)N(C)S(=O)(=O)c2ccc(C)cc2)cc1	9.04
Cc1cc(C(=O)N/N=C/c2cc(Br)ccc2OC(=O)c2ccccc2Cl)n[nH]1	9.7

Structure (SMILES)	hERG current change (%, negative = inhibition) at 1uM [%]
COc1ccc2c(COC(=O)CC3Sc4ccccc4NC3=O)cc(=O)oc2c1 (centres unmarked)	-12.8
CCn1c(=O)n(CC(=O)NCC2CCCO2)c(=O)c2c3c(sc21)CCCC3 (centres unmarked)	7.09
CN(C(=O)Oc1ccc(C(C)(C)C)cc1)c1ccccc1	17.7
Br.COc1ccc(/C(C)=N/Nc2nc(C)c(C(C)=O)s2)cc1	14.3
COc1ccccc1C(=O)Nc1cccc(NC(=O)c2ccccc2OC)n1	17.5
COc1ccc(C2SCCN2S(=O)(=O)c2ccc(F)cc2)cc1OC (centres unmarked)	2.64
COC(=O)c1cc(C(=O)OC)cc(-n2c(C)cc(C=O)c2C)c1	6.13
CCOC(=O)/C=C/C(=O)Nc1ccc(S(=O)(=O)N(C)c2ccccc2)cc1	8.29
CC1CC(=S)Nc2ccccc2N1Cc1ccccc1 (centres unmarked)	8.42
CCCCn1c(N)c(N(CCC(C)C)C(=O)CCN2C(=O)C3CC=CCC3C2=O)c(=O)[nH]c1=O (centres unmarked)	5.54
CCN1CCN(C(c2cccs2)C(C)NC(=O)c2cccc(OC)c2)CC1 (centres unmarked)	10.7
Cc1cc(C)c(C#N)c(SCc2nnc(-c3ccccc3)o2)n1	12.9
CC(C)N(Cc1ccccc1)C(=O)c1cnc2n(c1=O)CCS2	4.49
CCCc1cc(C(=O)Nc2ccc(C(=O)c3ccccc3)cc2)n(C)n1	1.33
Cc1c(C(=O)NCC2COc3ccccc3O2)oc2ccc(S(=O)(=O)N(C)C3CCCCC3)cc12 (centres unmarked)	7.65
CCOC(=O)COn1c(=O)c(-c2cc3ccccc3o2)[n+]([O-])c2ccccc21	12.6
COc1ccc(Cl)cc1NC(=S)N1CCCCCC1	6.91
CN(C)c1ccc(/C=N/N2CCN(Cc3ccccc3Cl)CC2)cc1	13.5
CCC(=O)N1CCc2cc(S(=O)(=O)CCC(=O)N3CCCC(C)C3)ccc21 (centres unmarked)	10.7
COc1cc(NC(=O)COC(=O)CNC(=O)c2ccc(C)cc2)c(C)cc1[N+](=O)[O-]	16.2
CCN(CC)CCN(C(=O)c1ccc(Br)s1)c1nc2cc3c(cc2s1)OCO3.Cl	8.19
Cn1cc(S(=O)(=O)Nc2ccc(Oc3ccccc3)cc2)c(=O)n(C)c1=O	10.6

Structure (SMILES)	hERG current change (%, negative = inhibition) at 1uM [%]
CCOC(=O)c1ccc(-n2cc(C(=O)c3cccnc3)nn2)cc1	11.8
Cc1ccccc1OCC(=O)Nc1ccc(N2CCN(S(C)(=O)=O)CC2)cc1	5.16
Cc1ccc(NC(=O)C(CC(C)C)NC(N)=O)cc1Cl (centres unmarked)	-2.5
Fc1cccc(CCN2CCNC[C@H]2Cc2cccc3ccccc23)c1	28.7
O=C(NCCO)/C(=C/c1cccc([N+](=O)[O-])c1)NC(=O)c1ccco1	9.43
O=S(=O)(c1cccc(-c2csc(-c3cccnc3)n2)c1)N1CCCCC1	1.52
CCc1ccc(NC(=O)CSCCN2C(=O)c3ccccc3C2=O)cc1	-8.99
CCOc1cc(NC(=O)c2cnccn2)c(OCC)cc1NC(=O)c1cccc(F)c1	12.1
Cc1ccccc1N1CCN(Cc2nc(Cc3ccccc3F)no2)CC1	9
C=CCSc1nc(C)c(CC(=O)OCC(C)C)c(=O)[nH]1	-1.25
CCC(C)C(NC(=O)c1ccccc1NC(=O)c1ccc(OC)cc1)C(=O)NCCCn1ccnc1 (centres unmarked)	6.55
COC(=O)[C@@H]1C[C@H]2CC[C@H](O)C[C@H]2N1Cc1ccc(N2CCN(C)CC2)cc1	17
CCCn1c(=O)c2sccc2n2c(CCCC(=O)NCc3cccnc3)nnc12	20.4
CC(=O)Nc1cccc(-c2nnc(SCc3ccccc3C#N)n2C)c1	5.32
CN(C1(C)CCS(=O)(=O)C1)S(=O)(=O)c1ccc(F)cc1 (centres unmarked)	10.6
Oc1c(Cl)cc(Cl)cc1CNc1ccc(Br)cn1	5.3
CC(C)CC(=O)Nc1ccc(N2CCOCC2)cc1	8.56
O=C(NCCCN1CCOCC1)c1cc(-c2cccc(Br)c2)nc2ccccc12	6.41
Cc1cc(NC(=O)COc2ccc(F)c(Cl)c2)no1	10.6
CC1CC(C)CN(CCCNC(=O)CN2C(=O)c3cccnc3Oc3ccccc32)C1 (centres unmarked)	6.56

From paper PMC4336329 (PLoS ONE, 2015)
